Measurements reported in PubChem BioAssay AID588453 (National Center for Advancing Translational Sciences (NCATS), 2011).
Several values for one entry are separate records, joined by “and”; a condition that tells them apart may be missing. Equal entries are not always repeated. The whole screen tested about 390,000 compounds, of which about 4,000 (1%) were called active. This list was built around the results that the source calls inconclusive (neither active nor inactive); the mix of calls is not that of the screen. Calls come from the whole dose curve; as a rule, active = well fitted inhibition curve with a large enough effect; inconclusive = small, poorly fitted or top-dose-only effect; inactive = no such curve, though single readings can be large or run the other way. A potency beside an inconclusive call is a rough fit, not a confirmed value.

What follows are molecules tested against Thioredoxin reductase 1, cytoplasmic (Rattus norvegicus) (UniProt O89049) (assay: qHTS Assay for Inhibitors of Mammalian Selenoprotein Thioredoxin Reductase 1 (TrxR1): qHTS). Conditions: recombinant rTrxR1, NADPH fluorescence consumption, selenite substrate; series mostly up to 114 µM.
Summary of the method: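 Rat TrxR1 (90 nM in the dispensed reagent) was pre-reduced with 400 uM NADPH for 5 min at room temperature, then incubated with compound for 15 min. After 400 uM selenite was added, NADPH fluorescence (Ex 340/Em 450 nm) was followed for 8 min.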
Note: nearly all actives have a fitted effect of over 65% in size.
Potency is the fitted concentration of half-maximal effect; tags give direction and shape of the fitted curve.

Chain of UniProt O89049 (O89049 whole entry, looked up): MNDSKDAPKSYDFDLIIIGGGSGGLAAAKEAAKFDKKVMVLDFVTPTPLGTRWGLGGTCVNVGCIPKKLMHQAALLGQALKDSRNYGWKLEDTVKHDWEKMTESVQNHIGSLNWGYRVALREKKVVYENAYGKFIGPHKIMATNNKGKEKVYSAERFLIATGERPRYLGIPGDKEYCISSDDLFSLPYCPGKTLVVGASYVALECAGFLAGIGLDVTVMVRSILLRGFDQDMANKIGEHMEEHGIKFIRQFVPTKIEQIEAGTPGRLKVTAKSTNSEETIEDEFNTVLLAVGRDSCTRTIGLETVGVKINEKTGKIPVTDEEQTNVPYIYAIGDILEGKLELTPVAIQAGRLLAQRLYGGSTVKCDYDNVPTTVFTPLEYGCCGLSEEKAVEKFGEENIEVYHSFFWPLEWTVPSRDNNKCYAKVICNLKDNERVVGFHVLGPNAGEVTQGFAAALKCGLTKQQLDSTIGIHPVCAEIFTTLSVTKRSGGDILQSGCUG

| SMILES | Potency |
| --- | --- |
| Cn1c(O)c(C2=NN(C(=O)CCl)C(c3ccccc3)C2)c(=O)n(C)c1=O (stereo unspecified) | inconclusive: 22.4 µM [inhibitor, full curve] |
| c1ccc2oc(N3CCNCC3)nc2c1 | inconclusive: 70.8 µM [inhibitor, single point] |
| Cc1cc(=O)oc2c3c(cc(OCC(=O)N4CCC[C@H]4C(=O)O)c12)OC(C)(C)CC3 | inconclusive: 79.4 µM [inhibitor, partial curve] |
| S=c1[nH]nc(-c2ccco2)n1-c1cccc2ccccc12 | inconclusive: 1.26 µM [inhibitor, full curve] |
| COc1ccc(C(=O)C2CCCN(Cc3cnc(C)s3)C2)c(OC)c1 (stereo unspecified) | inconclusive: 39.8 µM [inhibitor, single point] |
| CCCN(CC#CCOc1ccc(OC)cc1)CCC | inconclusive: 25.1 µM [inhibitor, single point] |
| COc1cc2c(c(OC)c1OC)-c1ccc(OC)c(=O)cc1[C@@H](NC(C)=O)CC2 | inconclusive: 29.9 µM [inhibitor, partial curve] and inconclusive: 844 nM [inhibitor, full curve, poor fit] |
| COc1ccccc1N1C(=O)NC(=O)/C(=C/c2ccc([N+](=O)[O-])s2)C1=O | inconclusive: 25.1 µM [inhibitor, partial curve, poor fit] |
| C/C(=N\NC(=O)c1ccccc1)c1c(O)n(C2CCCCC2)c(=O)[nH]c1=O | inactive |
| COc1ccccc1N1C(=O)NC(=O)/C(=C/c2ccc3c(c2)Cc2ccccc2-3)C1=O | inconclusive: 8.91 µM [inhibitor, full curve, poor fit] |
| O=C(O)CCC(=O)NCCC1=c2ccccc2=N/C1=C\c1c(O)n(Cc2ccc(F)cc2)c(=S)[nH]c1=O | active: 35.5 µM |
| CNC(C)C#Cc1ccc2oc3cc(C)c(C)cc3c(=O)c2c1 (stereo unspecified) | inconclusive: 56.2 µM [inhibitor, partial curve, poor fit] |
| COc1cc2c(cc1/C=C/[N+](=O)[O-])OCO2 | inconclusive: 20 µM [inhibitor, partial curve] |
| COc1ccc(C(=O)O/N=C(/C(N)=O)P(=O)(OC(C)C)OC(C)C)cc1 | inconclusive: 22.4 µM [inhibitor, single point] |
| O=C(CN1CCOCC1)c1cccc([N+](=O)[O-])c1 | inconclusive: 56.2 µM [inhibitor, single point] |
| O=C(CNC(=O)c1cccc(S(=O)(=O)N2CCc3ccccc32)c1)Nc1ccccc1Br | inconclusive: 89.1 µM [inhibitor, single point] |
| Cc1ccc(/C=C2\C(=O)NC(=S)N(c3ccccc3F)C2=O)s1 | active: 12.6 µM |
| COC(=O)C(O)(c1ccc(NC(=S)NC(=O)c2ccc(Cl)cc2Cl)cc1)C(F)(F)F (stereo unspecified) | inconclusive: 79.4 µM [inhibitor, partial curve] |
| C[C@]12C=CC(=O)C=C1CCC1C2=CC[C@]2(C)[C@@H](C(=O)CN3CCN(c4cc(N5CCCC5)nc(N5CCCC5)n4)CC3)CC[C@@H]12 (stereo partly specified) | inconclusive: 26.7 µM [inhibitor, single point] |
| C[CH2][Hg][S]c1ccccc1C(=O)O | inconclusive: 0.562 µM [inhibitor, full curve, poor fit] |
| COc1ccc(CN2CCN(Cc3ccccc3F)CC2)cc1 | inactive |

| SMILES | Potency |
| --- | --- |
| O=C(c1ccc2c(c1)OCO2)C1CCCN(Cc2ccccn2)C1 (stereo unspecified) | inactive |
| O=CC(Br)P(=O)(N1CCOCC1)N1CCOCC1 (stereo unspecified) | inconclusive: 56.2 µM [inhibitor, partial curve, poor fit] |
| CN1CC(C(=O)c2ccc(Cl)cc2)C(c2ccc(Cl)cc2Cl)C1 (stereo unspecified) | inactive |
| CN1CCc2cc3c(cc2[C@H]1[C@@H]1OC(=O)c2c1ccc1c2OCO1)OCO3 | inconclusive: 70.8 µM [inhibitor, partial curve, poor fit] |
| O=C1NC(=O)C(=Cc2ccc(Oc3ccc([N+](=O)[O-])cc3)cc2)C(=O)N1 | inconclusive: 14.1 µM [inhibitor, partial curve] |
| Cc1cc(OCC(=O)O)c2c3c(c(=O)oc2c1)CCCC3 | inconclusive: 70.8 µM [inhibitor, single point] |
| Cc1cc(OCC(=O)N2CCN(CCc3ccncc3)CC2)cc(C)c1Cl | inconclusive: 17.8 µM [inhibitor, full curve] |
| CCN(CC)C(=O)c1ccc(NC(=S)NC(=O)CCc2ccccc2)cc1 | inconclusive: 79.4 µM [inhibitor, single point] |
| Cc1ccc2cc(C=C(C#N)C#N)c(Cl)nc2c1 | active: 25.1 µM |
| Cn1c(O)c(/C=N/c2ncccn2)c(=O)n(C)c1=O | inconclusive: 79.4 µM [inhibitor, single point] |
| Cn1cccc1/C=C1/C(=O)NC(=O)N(Cc2ccc(F)cc2)C1=O | inconclusive: 12.6 µM [inhibitor, full curve] |
| N#CC(C#N)=Cc1cc(O)c(O)c(O)c1 | inconclusive: 50.1 µM [inhibitor, partial curve] |
| CN1C[C@H](CNC(=O)OCc2ccccc2)C[C@@H]2c3cccc4c3c(cn4C)C[C@H]21 | inconclusive: 26.7 µM [inhibitor, partial curve] |
| CC1=CC(=O)NP(=O)(Oc2ccc3ccccc3c2)N1 (stereo unspecified) | inconclusive: 56.2 µM [inhibitor, partial curve, poor fit] |
| CSc1nc(N)c(N=Nc2ccc([As](=O)(O)O)cc2)c(=O)[nH]1 | active: 3.98 µM |
| Cn1c(O)c(C(=Nc2ccccc2)SCc2ccc(Cl)cc2)c(=O)n(C)c1=O | inconclusive: 44.7 µM [inhibitor, partial curve] |
| O=C1NC(=O)C(=Cc2ccsc2)C(=O)N1 | inconclusive: 25.1 µM [inhibitor, single point] |
| CNC(=O)Oc1ccc(-c2cn3cc(Cl)ccc3n2)cc1 | active: 22.4 µM |
| O=C1NCCN2CCCC12 (stereo unspecified) | inconclusive: 31.6 µM [inhibitor, partial curve, poor fit] |
| O=C1NC(=O)N(c2ccc3c(c2)OCO3)C(=O)/C1=C/c1ccsc1 | active: 35.5 µM |
